Data from publication PMC11260487, “YjgA plays dual roles in enhancing PTC maturation” (Nucleic Acids Research, 2024).

Target: GST-uL16 (E. coli BL21, UniProt P0ADY7)
Test: pull-down; GST-uL16 (0.5 mg) immobilised on Glutathione Sepharose 4B, incubated with YjgA or mutant protein (1 mg) in 1 ml pull-down buffer (20 mM Tris-HCl pH 8.0, 150 mM NaCl, 10% glycerol) for 2 h at 4°C; washed three times, eluted with 15 mM reduced glutathione, SDS-PAGE
Conditions: both partners purified

binding result: binds
B1: YjgA-D15A (natural protein)
chain: not shown
notes: YjgA, E. coli, 183 amino acids, point mutant D15A; made from pET28a-YjgA-FL; source: E. coli BL21 ΔyjgA, purified (Ni-NTA)
